Experimental data taken from patent US20230143604A1, “QW DOSING OF GIP RECEPTOR AGONIST PEPTIDE COMPOUNDS AND USES THEREOF” (TAKEDA PHARMACEUTICAL COMPANY LIMITED, priority 2020, published 2023).
Read-outs that look alike come from different tables or passages of the source. Not every detail of the peptide structures is certain; ends, links or a residue may be inferred. Starred links: 1 amine or outer side, 2 acyl side, 3 side chain; linkers in the order of their positions; H or OH if unused. Non-standard residues stand in square brackets, D forms with d. Residues, ends and D or L forms follow the SMILES beside them. Groups on a side chain read outwards from the residue. *: point of attachment. C18 diacid = O=C(O)CCCCCCCCCCCCCCCCC(=O)*; C17 diacid = O=C(O)CCCCCCCCCCCCCCCC(=O)*; γGlu = O=C(O)[C@H](CCC(=O)[*:2])N[*:1]; NMeY = CN[C@@H](Cc1ccc(O)cc1)C(=O)O; AEEA = NCCOCCOCC(=O)O; Aib = CC(C)(N)C(=O)O

What was measured:
C57BL/6J mice = assay: Oral glucose tolerance test (OGTT); format: in vivo; conditions: 3 nmol/kg s.c., 24 hours before glucose loading
Description: An oral glucose tolerance test (OGTT) was carried out using C57BL/6J mice with a 50% dextrose solution dosed at 5 ml/kg. Testing concentrations of 0.1 nmol/kg, 0.3 nmmol/kg, 3 nmol/kg or 10 nmol/kg were selected depending on the peptide. Each peptide or a vehicle (control group) was subcutaneously administered 24 hours (unless shown otherwise) before glucose loading and the blood glucose was measured at 0, 15, 30, and 60 minutes after glucose dosing.
% inhibition=(1−(AUC cpd−AUC naïve/AUC veh−AUC naïve))×100.

human GLP-1R = target: T1, human GLP-1R (Homo sapiens, UniProt P43220); assay: Human GLP1R agonist activity, intracellular cAMP accumulation; format: cell-based
T1 construct: HEK-293T cells overexpressing full-length human GLP-1R; FLAG (N); host or cells: HEK-293T
T1 sequence (P43220 24-463): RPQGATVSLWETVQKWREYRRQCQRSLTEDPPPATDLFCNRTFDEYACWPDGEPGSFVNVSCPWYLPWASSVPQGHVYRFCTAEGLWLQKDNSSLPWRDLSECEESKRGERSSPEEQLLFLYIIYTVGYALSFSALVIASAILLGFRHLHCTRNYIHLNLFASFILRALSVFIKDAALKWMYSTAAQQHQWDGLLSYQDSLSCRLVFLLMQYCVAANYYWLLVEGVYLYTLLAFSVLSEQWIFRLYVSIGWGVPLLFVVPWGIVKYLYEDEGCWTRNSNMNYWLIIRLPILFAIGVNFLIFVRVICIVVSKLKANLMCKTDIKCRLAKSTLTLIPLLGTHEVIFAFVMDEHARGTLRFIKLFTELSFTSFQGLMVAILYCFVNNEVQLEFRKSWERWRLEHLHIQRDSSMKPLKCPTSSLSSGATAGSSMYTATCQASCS
Method in brief: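 Frozen assay-ready cells washed and resuspended at 4×10^5 cells/mL in Krebs Ringer buffer, then incubated with compound 1 hr at room temperature in the dark. cAMP read by HTRF (anti-cAMP antibody, d2-cAMP tracer). Normalised to 1 nm GLP-1 (100%) and DMSO (0%).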

[1] = HEK-293T cells overexpressing human GLP-1R, 1 hr, read-out: Human GLP1R cAMP EC50, HEK293T

Row | Structure (SMILES) | Oral Glucose Tolerance Test Percent decrease in blood glucose AUC (%) over 60 mins (C57BL/6J mice) | EC50 (human GLP-1R; [1]) | other results
1 | CC[C@H](C)[C@H](NC(=O)[C@H](CO)NC(=O)[C@H](Cc1ccc(O)cc1)NC(=O)[C@H](CC(=O)O)NC(=O)[C@H](CO)NC(=O)[C@@H](NC(=O)[C@H](Cc1ccccc1)NC(=O)[C@@H](NC(=O)CNC(=O)[C@H](CCC(=O)O)NC(=O)C(C)(C)NC(=O)[C@H](Cc1ccc(O)cc1)NC)[C@@H](C)O)[C@@H](C)CC)C(=O)N[C@@H](C)C(=O)N[C@@H](CCCCNC(=O)CC[C@H](NC(=O)CC[C@H](NC(=O)CC[C@H](NC(=O)CCCCCCCCCCCCCCCC(=O)O)C(=O)O)C(=O)O)C(=O)O)C(=O)N[C@@H](CC(=O)O)C(=O)N[C@@H](CCCNC(=N)N)C(=O)NC(C)(C)C(=O)N[C@@H](C)C(=O)N[C@@H](CCC(N)=O)C(=O)NC(C)(C)C(=O)N[C@@H](CC(N)=O)C(=O)N[C@@H](Cc1ccccc1)C(=O)N[C@H](C(=O)N[C@@H](CC(N)=O)C(=O)N[C@@H](Cc1c[nH]c2ccccc12)C(=O)N[C@@H](CC(C)C)C(=O)N[C@@H](CC(C)C)C(=O)N[C@@H](C)C(=O)N[C@@H](CCC(N)=O)C(=O)N[C@@H](CO)C(=O)N1CCC[C@H]1C(=O)N[C@@H](CO)C(=O)N[C@@H](CO)C(=O)NCC(=O)N[C@@H](C)C(=O)N1CCC[C@H]1C(=O)N1CCC[C@H]1C(=O)N1CCC[C@H]1C(=O)N[C@@H](CO)C(N)=O)C(C)C [Compound 12] (H-[NMeY][Aib]EGTFISDYSIAK([γGlu-γGlu-γGlu-C17 diacid])DR[Aib]AQ[Aib]NFVNWLLAQSPSSGAPPPS-NH2) | 30% (3 nmol/kg) |  | 
2 | CC[C@H](C)[C@H](NC(=O)[C@H](Cc1ccccc1)NC(=O)[C@@H](NC(=O)CNC(=O)[C@H](CCC(=O)O)NC(=O)C(C)(C)NC(=O)[C@H](Cc1ccc(O)cc1)NC)[C@@H](C)O)C(=O)N[C@@H](CO)C(=O)N[C@@H](CC(=O)O)C(=O)N[C@@H](Cc1ccc(O)cc1)C(=O)N[C@@H](CO)C(=O)N[C@H](C(=O)NC(C)(C)C(=O)N[C@@H](CC(C)C)C(=O)N[C@@H](CC(=O)O)C(=O)N[C@@H](CCCNC(=N)N)C(=O)NC(C)(C)C(=O)N[C@@H](CCCCNC(=O)COCCOCCNC(=O)COCCOCCNC(=O)CC[C@H](NC(=O)CC[C@H](NC(=O)CCCCCCCCCCCCCCCCC(=O)O)C(=O)O)C(=O)O)C(=O)N[C@@H](CCC(N)=O)C(=O)NC(C)(C)C(=O)N[C@@H](CC(N)=O)C(=O)N[C@@H](Cc1ccccc1)C(=O)N[C@H](C(=O)N[C@@H](CC(N)=O)C(=O)N[C@@H](Cc1c[nH]c2ccccc12)C(=O)N[C@@H](CC(C)C)C(=O)N[C@@H](CC(C)C)C(=O)N[C@@H](C)C(=O)N[C@@H](CCC(N)=O)C(=O)N[C@@H](CCCNC(=N)N)C(=O)NCC(=O)O)C(C)C)[C@@H](C)CC [Compound 74] (H-[NMeY][Aib]EGTFISDYSI[Aib]LDR[Aib]K([AEEA-AEEA-γGlu-γGlu-C18 diacid])Q[Aib]NFVNWLLAQRG-OH) | 18% (3 nmol/kg) |  | 
3 | CC[C@H](C)[C@H](NC(=O)[C@H](Cc1ccccc1)NC(=O)[C@@H](NC(=O)CNC(=O)[C@H](CCC(=O)O)NC(=O)C(C)(C)NC(=O)[C@H](Cc1ccc(O)cc1)NC)[C@@H](C)O)C(=O)N[C@@H](CO)C(=O)N[C@@H](CC(=O)O)C(=O)N[C@@H](Cc1ccc(O)cc1)C(=O)N[C@@H](CO)C(=O)N[C@H](C(=O)NC(C)(C)C(=O)N[C@@H](CC(C)C)C(=O)N[C@@H](CC(=O)O)C(=O)N[C@@H](CCCNC(=N)N)C(=O)NC(C)(C)C(=O)N[C@@H](C)C(=O)N[C@@H](C)C(=O)NC(C)(C)C(=O)N[C@@H](CCCCNC(=O)COCCOCCNC(=O)COCCOCCNC(=O)CC[C@H](NC(=O)CC[C@H](NC(=O)CCCCCCCCCCCCCCCCC(=O)O)C(=O)O)C(=O)O)C(=O)N[C@@H](Cc1ccccc1)C(=O)N[C@H](C(=O)N[C@@H](CC(N)=O)C(=O)N[C@@H](Cc1c[nH]c2ccccc12)C(=O)N[C@@H](CC(C)C)C(=O)N[C@@H](CC(C)C)C(=O)N[C@@H](C)C(=O)N[C@@H](CCC(N)=O)C(=O)N[C@@H](CCCNC(=N)N)C(=O)N1CCC[C@H]1C(=O)N[C@@H](CO)C(=O)N[C@@H](CO)C(=O)NCC(=O)N[C@@H](C)C(=O)N1CCC[C@H]1C(=O)N1CCC[C@H]1C(=O)N1CCC[C@H]1C(=O)N[C@@H](CO)C(N)=O)C(C)C)[C@@H](C)CC [Compound 106] (H-[NMeY][Aib]EGTFISDYSI[Aib]LDR[Aib]AA[Aib]K([AEEA-AEEA-γGlu-γGlu-C18 diacid])FVNWLLAQRPSSGAPPPS-NH2) | 40% (3 nmol/kg) |  | 
4 | CC[C@H](C)[C@H](NC(=O)[C@H](Cc1ccccc1)NC(=O)[C@@H](NC(=O)CNC(=O)[C@H](CCC(=O)O)NC(=O)C(C)(C)NC(=O)[C@H](Cc1ccc(O)cc1)NC)[C@@H](C)O)C(=O)N[C@@H](CO)C(=O)N[C@@H](CC(=O)O)C(=O)N[C@@H](Cc1ccc(O)cc1)C(=O)N[C@@H](CO)C(=O)N[C@H](C(=O)NC(C)(C)C(=O)N[C@@H](CC(C)C)C(=O)N[C@@H](CC(=O)O)C(=O)N[C@@H](CCCNC(=N)N)C(=O)NC(C)(C)C(=O)N[C@@H](C)C(=O)N[C@@H](CCC(N)=O)C(=O)N[C@@H](C)C(=O)N[C@@H](CCCCNC(=O)COCCOCCNC(=O)COCCOCCNC(=O)CC[C@H](NC(=O)CC[C@H](NC(=O)CCCCCCCCCCCCCCCCC(=O)O)C(=O)O)C(=O)O)C(=O)N[C@@H](Cc1ccccc1)C(=O)N[C@H](C(=O)N[C@@H](CC(N)=O)C(=O)N[C@@H](Cc1c[nH]c2ccccc12)C(=O)N[C@@H](CC(C)C)C(=O)N[C@@H](CC(C)C)C(=O)N[C@@H](C)C(=O)N[C@@H](CCC(N)=O)C(=O)N[C@@H](CCCNC(=N)N)C(=O)NCC(=O)O)C(C)C)[C@@H](C)CC [Compound 215] (H-[NMeY][Aib]EGTFISDYSI[Aib]LDR[Aib]AQAK([AEEA-AEEA-γGlu-γGlu-C18 diacid])FVNWLLAQRG-OH) |  | 61.7 nM | 
5 | CC[C@H](C)[C@H](NC(=O)[C@H](CO)NC(=O)[C@H](Cc1ccc(O)cc1)NC(=O)[C@H](CC(=O)O)NC(=O)[C@H](CO)NC(=O)[C@@H](NC(=O)[C@H](Cc1ccccc1)NC(=O)[C@@H](NC(=O)CNC(=O)[C@H](CCC(=O)O)NC(=O)C(C)(C)NC(=O)[C@H](Cc1ccc(O)cc1)NC)[C@@H](C)O)[C@@H](C)CC)C(=O)N[C@@H](C)C(=O)N[C@@H](CC(C)C)C(=O)N[C@@H](CC(=O)O)C(=O)N[C@@H](CCCNC(=N)N)C(=O)NC(C)(C)C(=O)N[C@@H](C)C(=O)N[C@@H](CCC(N)=O)C(=O)NC(C)(C)C(=O)N[C@@H](CC(N)=O)C(=O)N[C@@H](Cc1ccccc1)C(=O)N[C@H](C(=O)N[C@@H](CC(N)=O)C(=O)N[C@@H](Cc1c[nH]c2ccccc12)C(=O)N[C@@H](CC(C)C)C(=O)N[C@@H](CC(C)C)C(=O)N[C@@H](C)C(=O)N[C@@H](CCCCNC(=O)COCCOCCNC(=O)COCCOCCNC(=O)CC[C@H](NC(=O)CC[C@H](NC(=O)CCCCCCCCCCCCCCCCC(=O)O)C(=O)O)C(=O)O)C(=O)N[C@@H](CO)C(=O)N1CCC[C@H]1C(=O)N[C@@H](CO)C(=O)N[C@@H](CO)C(=O)NCC(=O)N[C@@H](C)C(=O)N1CCC[C@H]1C(=O)N1CCC[C@H]1C(=O)N1CCC[C@H]1C(=O)N[C@@H](CO)C(N)=O)C(C)C [Compound 59] (H-[NMeY][Aib]EGTFISDYSIALDR[Aib]AQ[Aib]NFVNWLLAK([AEEA-AEEA-γGlu-γGlu-C18 diacid])SPSSGAPPPS-NH2) |  |  | EC50 (human GLP-1R; read-out: Human GLP1R cAMP EC50, HEK293T, HEK-293T cells overexpressing human GLP-1R, 1 hr): > 1000 nM
6 | CC[C@H](C)[C@H](NC(=O)[C@H](Cc1ccccc1)NC(=O)[C@@H](NC(=O)CNC(=O)[C@H](CCC(=O)O)NC(=O)C(C)(C)NC(=O)[C@H](Cc1ccc(O)cc1)NC)[C@@H](C)O)C(=O)N[C@@H](CO)C(=O)N[C@@H](CC(=O)O)C(=O)N[C@@H](Cc1ccc(O)cc1)C(=O)N[C@@H](CO)C(=O)N[C@H](C(=O)NC(C)(C)C(=O)N[C@@H](CC(C)C)C(=O)N[C@@H](CC(=O)O)C(=O)N[C@@H](CCCNC(=N)N)C(=O)NC(C)(C)C(=O)N[C@@H](C)C(=O)N[C@@H](CCC(N)=O)C(=O)NC(C)(C)C(=O)N[C@@H](CCCCNC(=O)COCCOCCNC(=O)COCCOCCNC(=O)CC[C@H](NC(=O)CC[C@H](NC(=O)CCCCCCCCCCCCCCCC(=O)O)C(=O)O)C(=O)O)C(=O)N[C@@H](Cc1ccccc1)C(=O)N[C@H](C(=O)N[C@@H](CC(N)=O)C(=O)N[C@@H](Cc1c[nH]c2ccccc12)C(=O)N[C@@H](CC(C)C)C(=O)N[C@@H](CC(C)C)C(=O)N[C@@H](C)C(=O)N[C@@H](CCC(N)=O)C(=O)N[C@@H](CCCNC(=N)N)C(=O)NCC(=O)O)C(C)C)[C@@H](C)CC [Compound 127] (H-[NMeY][Aib]EGTFISDYSI[Aib]LDR[Aib]AQ[Aib]K([AEEA-AEEA-γGlu-γGlu-C17 diacid])FVNWLLAQRG-OH) |  | 63.1 nM | 
